PubChem BioAssay AID1845194 (Molecular Pharmacology Branch, DTP, NCI, 2023)
Certain results were filed several times, with different values. The other results are left out here. There may be further records. Results that share an entry are repeats in other runs, samples, wells, individuals or studies.

System: 287954-098-R-J1 tumor spheroid viability
Assay: Anticancer human tumor 287954-098-R-J1 patient-derived Ewing sarcoma cell line growth inhibition
Settings: compound alone 30 µM; stronger effect = lower value; spheroids with HUVEC and MSC
Excerpt: Multicellular complex tumor spheroid response to DNA repair inhibitors in combination with DNA-damaging drugs
This study explores the anticancer activities of DNA-damaging drugs and inhibitors of DNA damage repair, both as single agents and in combinations. Complex tumor spheroids comprised of malignant cells, endothelial cells and mesenchymal stem cells served as an in vitro model for human solid tumors. This model system incorporates physiologically relevant features and patient-derived or established malignant cell lines with clinically relevant genetic alterations from many tumor types. Twenty-six patient-derived or established malignant cell lines were evaluated representing sarcoma, melanoma, small cell lung cancer (SCLC), non-small cell lung cancer (NSCLC), as well as bladder, ovarian and pancreatic cancers. The concentration ranges selected for each drug and investigational agent were based upon clinically achievable concentrations if the clinical Cmax of the agent was known.
Compounds. […] If the clinical Cmax for an agent had not been determined, the highest concentration tested was 10 microM. […]
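Note: luminescent signal taken as surrogate of viable cell content; spheroids exposed to compound for 7 days before viability readout; 100% = DMSO vehicle control viability and lower means growth inhibition.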

O=C(c1cc(Cc2n[nH]c(=O)c3ccccc23)ccc1F)N1CCN(C(=O)C2CC2)CC1
viability, T/C: 34.4%, 8.98%, 25.7%
